Molecules are shown by their SMILES. In all, about 110,000 compounds were measured (“z-score”: median about -0.1, highest 2% from about 2 on). This is one part of the list.

This assay has as its target Metabotropic glutamate receptor 8 (Rattus norvegicus) (UniProt P70579). Briefly: rat mGluR8 modulators via GIRK flux, primary screen, cell-based, thallium flux, HTS (AID 488969). The conditions noted are these: HEK293 rat mGluR8, GIRK (G protein-gated inwardly rectifying potassium channel) thallium flux, FluoZin2; at 10 µM; stronger effect = higher value; submaximal glutamate (EC20) added with thallium.
Chain of UniProt P70579 (P70579 whole entry, looked up): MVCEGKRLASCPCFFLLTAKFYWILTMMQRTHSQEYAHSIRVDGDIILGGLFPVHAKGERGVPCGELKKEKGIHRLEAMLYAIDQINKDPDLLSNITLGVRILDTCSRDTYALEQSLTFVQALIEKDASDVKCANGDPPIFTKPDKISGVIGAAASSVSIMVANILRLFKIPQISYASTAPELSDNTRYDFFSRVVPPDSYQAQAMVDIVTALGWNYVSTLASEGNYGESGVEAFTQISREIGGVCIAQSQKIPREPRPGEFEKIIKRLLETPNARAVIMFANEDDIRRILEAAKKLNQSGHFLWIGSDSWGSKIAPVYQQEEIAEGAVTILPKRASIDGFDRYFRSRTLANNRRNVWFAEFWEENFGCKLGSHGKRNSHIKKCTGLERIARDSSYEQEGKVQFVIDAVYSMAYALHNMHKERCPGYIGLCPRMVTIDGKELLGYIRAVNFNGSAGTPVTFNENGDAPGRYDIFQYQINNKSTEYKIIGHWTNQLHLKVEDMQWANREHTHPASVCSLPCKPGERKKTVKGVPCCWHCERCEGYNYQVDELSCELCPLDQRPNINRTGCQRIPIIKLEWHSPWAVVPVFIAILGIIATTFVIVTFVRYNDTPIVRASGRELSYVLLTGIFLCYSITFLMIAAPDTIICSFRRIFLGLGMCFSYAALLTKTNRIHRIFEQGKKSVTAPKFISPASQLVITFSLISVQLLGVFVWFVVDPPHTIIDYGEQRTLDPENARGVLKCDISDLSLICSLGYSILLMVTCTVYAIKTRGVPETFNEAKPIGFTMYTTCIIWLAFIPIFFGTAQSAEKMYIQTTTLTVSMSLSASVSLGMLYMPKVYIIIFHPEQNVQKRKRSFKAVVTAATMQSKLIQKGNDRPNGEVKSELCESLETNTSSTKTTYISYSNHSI
In turn, `O=C(COC(=O)c1cccc(S(=O)(=O)N2CCc3ccccc32)c1)Nc1ncc(Cl)cc1Cl` returned a z-score of -0.543.

On to `Nc1nc2nc(-c3ccc(OCc4ccccc4)cc3)cc(C(F)(F)F)n2n1`, for which the z-score was -0.434.

As for `Cc1nn(C)c(C)c1CN(C)S(=O)(=O)c1ccc2ccccc2c1`, the z-score is -0.0215.

The molecule `NS(=O)(=O)c1ccc(NC(=O)C(Sc2ccccc2)c2ccccc2)cc1` (stereo not drawn) registered a z-score of -0.39.

For the molecule `COc1ccc(/C=N/Nc2nncc3ccccc23)cc1`, the z-score was -0.111.

Regarding `CCCCCCCCCCNC(=O)CCn1[nH]c(=O)c2ccccc2c1=O`, the z-score amounted to 0.387.

In turn, `C=CCn1c(SCC(=O)N2CCN(C(=O)c3ccco3)CC2)nc2sc(CC)cc2c1=O` gave a z-score of -2.02.

`CCOc1ccc2[nH]c(=O)c(CN(CCO)C(=O)c3ccc(OC)c(OC)c3)cc2c1`: the z-score is 0.172.

Take `C=CCn1c(-c2ccc([N+](=O)[O-])cc2)n[nH]c1=S`: the z-score is -0.141.

Regarding `CCn1c(SCc2nc3ccccc3c(=O)[nH]2)nc2ccccc2c1=O`, the z-score is -0.672.

Take `O=C(/C=C/c1c(Cl)cccc1Cl)N1CCN(c2ncccn2)CC1`: the z-score is -0.303.

On to `O=C(CSc1nc(Nc2ccccc2)nc(N2CCOCC2)n1)Nc1ccc([N+](=O)[O-])cc1`, for which the z-score was -0.18.

The molecule `COc1cc(/C=N/NC(=O)c2sc(N)c(C#N)c2C)ccc1O` showed a z-score of -0.0866.

For `CCn1c(/C=C/N(C(C)=O)c2ccccc2)[n+](CC)c2ccc(Cl)cc21`, the z-score is -0.116.

Molecule `CCCCNC(=O)c1onc(CSc2cc(C)cc(C)c2)c1C(=O)O` yielded a z-score of -0.0168.

`O=C(c1cccc(F)c1)N1CCN(Cc2c[nH]c3ccccc23)CC1` showed a z-score of -0.0568.

`CC(C)CN(C(=O)COC(=O)CCc1c[nH]c2ccccc12)C1CCS(=O)(=O)C1` (stereo not drawn) returned a z-score of -0.187.

For the molecule `COc1ccc(S(=O)(=O)N(C(=O)C(C)C)c2ccc3oc(=O)sc3c2)cc1`, the z-score is 0.209.

In turn, `COc1ccc(Cl)c(Cn2c(NCCCN(C)C)nc3c2c(=O)n(C)c(=O)n3C)c1` yielded a z-score of 0.0257.

For the molecule `O=C(NCc1ccco1)c1cccc(NS(=O)(=O)c2ccccc2F)c1`, the z-score was -0.312.

With `CS(=O)(=O)N1CCc2cc(C(=O)OCC(=O)c3ccccc3)ccc21`, the z-score was -0.0613.

`CC(C)(C)c1ccc(S(=O)(=O)NCC(=O)Nc2sc3c(c2C(N)=O)CCCC3)cc1` yielded a z-score of -0.0387.

Molecule `O=C(O)CSCNC(=O)CC12CC3CC(CC(C3)C1)C2` gave a z-score of -0.152.

On to `Cc1n[nH]c(=S)c2nn(-c3ccccc3)c(C)c12`, for which the z-score is -0.174.

Turning to `CCOc1ccc(NC(=O)CSc2nnc(-c3ccoc3C)n2CC2CCCO2)cc1` (stereo not drawn), the z-score stood at 0.377.

`N#Cc1cn(Cc2cccc(Cl)c2)c2ccccc12`: the z-score came to 0.676.

In turn, `Cc1ccc(-c2nc(C3CCN(S(=O)(=O)c4ccc(C(C)(C)C)cc4)CC3)no2)cc1` gave a z-score of -0.202.

Molecule `O=C(N/N=C/c1ccc(N2CCCCC2)o1)c1ccccc1` showed a z-score of 0.453.

The values are drawn from PubChem BioAssay AID488969 (Vanderbilt High Throughput Screening Facility, 2010).
